Experimental data taken from PubChem BioAssay AID2546 (National Center for Advancing Translational Sciences (NCATS), 2010).
“And” between values parts separate entries of the source, which are not always exact repeats. Identical values can stand only once. In all, about 310,000 compounds went through this assay and about 11,000 (3.5%) were called active. This list was built around the results that the source calls inconclusive (neither active nor inactive); the mix of calls is not that of the screen. Calls come from the whole dose curve; as a rule, active = well fitted inhibition curve with a large enough effect; inconclusive = small, poorly fitted or top-dose-only effect, or effect the other way; inactive = flat fitted curve, though single readings scatter. No potency is given beside an inconclusive call; the fits are too rough.

Experiment: VP16 counterscreen qHTS for inhibitors of ROR gamma transcriptional activity;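 note: Gal4-VP16 expression switched on by copper sulfate through the metallothionein promoter; nearly all actives have a fitted effect of over 50% in size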
Conditions: Drosophila S2 Gal4-VP16 UAS-luciferase, luminescence, 20 h; activity, negative = inhibition: at 53.6 µM (top of the series)
% is set by controls: 0 for no effect and ±100 for the full control effect; potency is the fitted concentration of half-maximal effect; tags give direction and shape of the fitted curve.

Structure (SMILES) | activity, negative = inhibition | Potency
COc1ccc(C2CC(c3cccs3)=NN2C(=O)c2ccco2)cc1OC (stereo not given) | inactive: 4.82% | 
CC1CCCC(NC(=S)Nc2cccc(S(=O)(=O)N(C)C)c2)C1C (stereo not given) |  | inconclusive [inhibitor, single point]
Cc1c(C(=O)N2CCN(Cc3ccccc3)CC2)sc2ncnc(N3CCOCC3)c12 | inactive: -1.04% [at 0.365 µM] | 
CN(C)c1nc(NN)nc(Nc2ccc(F)cc2)n1 |  | inconclusive [inhibitor, single point]
CCOc1ccc2nc(N/C(N)=N/C(=S)Nc3ccc(C)c(C)c3)nc(C)c2c1 |  | inconclusive [inhibitor, full curve]
C(=N\Nc1ccc2nncn2n1)/c1ccco1 | inactive: 11% | 
c1ccc(-c2cc(-c3nn4c(-c5ccco5)nnc4s3)c3ccccc3n2)cc1 |  | inconclusive [inhibitor, single point]
COc1ccccc1C(=O)C1CCCN(C(=O)c2cn3cc(Cl)ccc3n2)C1 (stereo not given) | inactive: -4.61% | 
COc1ccc(CNCC(O)(c2ccccc2)c2ccc(F)cc2)cc1OC (stereo not given) |  | inconclusive [inhibitor, single point]
CN(C)c1ccc(C(=O)Nc2ccc(S(=O)(=O)Nc3nccs3)cc2)cc1 | inactive: -6.06% | 
Cc1cccc(C(=O)Nc2nnc(C3=COCCO3)o2)c1 |  | active: 1 µM
N=c1n(Cc2ccccc2)c2ccccc2n1CC(O)COc1ccc(Cl)cc1Cl (stereo not given) |  | inconclusive [inhibitor, single point]
Cn1ccnc1SCC(=O)N(C1CCCCC1)C1CCCCC1 |  | inconclusive [inhibitor, single point]
CCOc1ccc(N(C(C)C(=O)N2CCOCC2)S(C)(=O)=O)cc1 (stereo not given) | inactive: -4.22% | 
Cc1ccc(C(=O)N/N=C\C=C\c2ccc(Br)cc2)cn1 |  | active: 2.24 µM
C/C(Cl)=C/Cc1c(C)[nH]c2c(ccc3ccccc32)c1=O |  | inconclusive [inhibitor, single point]
OC(c1ccc(OCc2ccccc2)cc1)c1nnc(-c2ccccc2)o1 (stereo not given) |  | inconclusive [inhibitor, single point]
CCn1c(-c2ccccc2)c[nH]c1=S |  | active: 8.91 µM
CCn1c(=O)c(C(=O)NCCCc2ccccc2)c(O)c2ccccc21 |  | inconclusive [inhibitor, single point]
CC(C)c1ccccc1NC(=S)NCc1ccccc1F |  | inconclusive [inhibitor, partial curve, poor fit]
Cc1n[nH]c(C)c1CCCCOc1ccccc1F |  | inconclusive [inhibitor, single point]
S=C(Nc1ccc(Cl)cc1)N1CCN(Cc2ccccc2)CC1 | inactive: -27.9% | 
Cc1ccc2c(c1)cc1c(=O)n(CC(=O)NCCCc3ccccc3)nc(C)n12 | inactive: 1.96% | 
Cc1nn(CCc2n[nH]c(=S)n2C2CCCCC2)c(C)c1Br |  | inconclusive [inhibitor, single point]
CCOC(=O)c1cc2c(nc1NC(=S)Nc1ccccc1)CC(C)(C)OC2 |  | inconclusive [inhibitor, partial curve]

Structure (SMILES) | activity, negative = inhibition | Potency
c1ccc(CCNc2ncnc3ccccc23)cc1 |  | active: 0.562 µM
O=C(NC1=NCCS1)c1cc(-c2cccc(Br)c2)nc2ccccc12 |  | inconclusive [inhibitor, single point]
COc1cc(NS(=O)(=O)c2ccc(NC(=S)NC(=O)c3ccc(F)c(F)c3)cc2)nc(OC)n1 | inactive: -3.88% | 
c1ccc2c(c1)CCCC2NC1=NCCC1 (stereo not given) | inactive: -6.68% | 
CNCc1ccccc1Sc1cc(O)ccc1O |  | inconclusive [inhibitor, single point]
C=CCNC(=S)NC(=O)c1csc([N+](=O)[O-])c1 |  | inconclusive [inhibitor, single point]
O=C(Nc1cccc(S(=O)(=O)N2CCCCC2)c1)c1ccc2ncsc2c1 | inactive: -29.9% | 
CCc1ccc2c(CN(C)Cc3ccccc3OC)cc(=O)oc2c1 | inactive: 7.37% | 
CCN(CC)CCCCNc1ncc2cc(-c3cc(OC)cc(OC)c3)c(NC(=O)NC(C)(C)C)nc2n1 |  | inconclusive [inhibitor, single point]
CCC(=O)c1ccc(N2CCN(C(=O)c3ccccc3Br)CC2)c(F)c1 |  | inconclusive [inhibitor, single point]
CCOC(=O)C(=Cc1ccccc1)C(=O)OCC |  | active: 12.6 µM
O=C(CSc1nccc(-c2cccs2)n1)Nc1cccc(Cl)c1 |  | inconclusive [inhibitor, partial curve]
Cn1cc(-c2nc3cnc(Oc4ccccc4)nc3n(C)c2=O)c2ccccc21 | inactive: -5.93% | 
CC(OC(=O)CCCc1nc2ccccc2s1)C(=O)NC(N)=O (stereo not given) |  | inconclusive [inhibitor, partial curve]
N#CC1=C2SCN(c3ccccc3)CN2C(=O)CC1c1c(Cl)cccc1Cl (stereo not given) |  | inconclusive [inhibitor, single point]
O=C(/C=C/c1cccc(C(F)(F)F)c1)Nc1cccc(C(F)(F)F)c1 |  | inconclusive [inhibitor, single point]
COc1ccc(-c2csc(Nc3ccc(O)cc3)n2)cc1 |  | active: 12.6 µM
Cc1ccc(-c2cnn(-c3ccccc3)c2N)cc1 |  | inconclusive [inhibitor, single point]
O=C(Nc1ccccc1F)Nc1ccc([N+](=O)[O-])cc1Cl |  | inconclusive [activator, single point]
O=C(Nc1cccnc1)c1ccc2nc(-c3ccccc3)c(-c3ccccc3)nc2c1 | inactive: -0.929% | 
Cc1cc(C)c(S(=O)(=O)Nc2cccc(C(F)(F)F)c2)c(C)c1 |  | inconclusive [inhibitor, partial curve]
NC(=O)C1(N2CCCCC2)CCN(CC(=O)Nc2ccccc2-c2ccccc2)CC1 | inactive: 3.96% | 
CO[C@H]1COC(=O)C/C=C\[C@@H](C)COC(=O)[C@@H](CCSC)NC(=O)C/C=C\[C@@H]1C | inactive: -2.48% [at 10 µM] and inactive: 5.82% [at 10 µM] | 
CN(C)CCCN(C(=O)c1ccc([N+](=O)[O-])s1)c1nc2cc3c(cc2s1)OCCO3 |  | inconclusive [inhibitor, single point]
COc1cc(OC)cc(-c2cc3nc(C)c(CCC(=O)NCc4ccccc4)c(C)n3n2)c1 |  | inconclusive [inhibitor, single point]

Structure (SMILES) | activity, negative = inhibition | Potency
Cc1cc(C)cc(NC(=S)Nc2ccc(Cl)c(Cl)c2)c1 |  | inconclusive [inhibitor, single point]
COc1ccc(C(=O)NC(=S)NNC(=O)Cc2cccs2)cc1 |  | inconclusive [inhibitor, single point]
COc1ccc2ccccc2c1/C=N/NC(=O)c1sc(N)c(C#N)c1C |  | inconclusive [inhibitor, single point]
O=C1NC(=O)[C@@H]2C3c4ccccc4C=CN3[C@H](C(=O)c3cccs3)[C@H]12 (stereo not given in full) |  | inconclusive [inhibitor, single point]
CC(C)(C)c1ccc(CN(Cc2ccco2)Cc2nnnn2C2CCCC2)cc1 |  | active: 2.82 µM
Cc1[nH]c2ccc3c(ncn3CCC#N)c2c1C | inactive: 7.14% | 
O=c1c(-c2ccc(Cl)cc2)nc2cnc(N3CCNCC3)nc2n1Cc1cccs1 |  | inconclusive [inhibitor, single point]
C/C(=N\NC(=S)NCc1ccccc1)c1ccccc1 |  | active: 3.55 µM
COc1ccc(C(=O)NC(=S)NNC(=O)[C@H]2C[C@@H]2c2ccccc2)cc1OC |  | inconclusive [inhibitor, single point]
COc1ccccc1OCC(=O)NCCCn1ccnc1 | inactive: 0.542% | 
O=C(NC(=S)Nc1cccc([N+](=O)[O-])c1)C1CCCCC1 |  | inconclusive [inhibitor, single point]
Cc1cc(Nc2ccccc2)c2c([N+](=O)[O-])ccc(C)c2n1 |  | active: 35.5 µM
Cc1ccc(N(CC(=O)Nc2ccccc2-c2ccccc2)S(=O)(=O)c2ccccc2)c(C)c1 |  | inconclusive [inhibitor, single point]
S=C(Nc1ccc(Cl)cc1Cl)Nc1ccccc1Oc1ccccc1 |  | inconclusive [inhibitor, single point]
Clc1ccc(CNc2ccc(CNc3ncn[nH]3)cc2)c(Cl)c1 |  | active: 12.6 µM
Cc1cc(=O)[nH]c(N/N=C/c2ccccn2)n1 | inactive: -7.56% | 
NC(=S)NNC(=O)c1ccccc1 |  | active: 22.4 µM
CN(C)S(=O)(=O)c1cccc(NC(=O)c2ccc(OC(F)(F)F)cc2)c1 |  | inconclusive [inhibitor, single point]
COc1ccc(CNC(=O)c2ccc(S(=O)(=O)N3CCCC3)cc2)cc1OC | inactive: 0.426% | 
COc1ccc(N2CCC(CNC(=S)Nc3cc(C)ccc3C)C2)cc1 (stereo not given) |  | active: 10 µM
CC(=O)OC1CC2C(C)(C)C(=O)CC[C@]2(C)C2CC[C@]3(C)C(=CC(=O)OC3c3ccoc3)[C@]12C (stereo not given in full) | inactive: 0.746% | 
CC(C)(C)c1ccc(OCC(O)CS(=O)(=O)c2ccccn2)cc1 (stereo not given) |  | inconclusive [inhibitor, single point]
CCCC(C(=O)Nc1nccs1)c1ccccc1 (stereo not given) |  | inconclusive [inhibitor, single point]
Cc1ccc(C(=O)Nc2cc(C(C)C)c(O)c(C(C)C)c2)cc1 | inactive: -7.37% | 
Cc1c(CC(=O)NCC(C)C)c(=O)oc2cc3c(cc12)CCC(C)(C)O3 |  | inconclusive [inhibitor, single point]
